PubChem BioAssay AID1159614 (National Center for Advancing Translational Sciences (NCATS), 2016)
About 65 (0.1%) of roughly 45,000 compounds were called active. Calls come from the whole dose curve; as a rule, active = well fitted activation curve with a large enough effect; inconclusive = small, poorly fitted or top-dose-only effect; inactive = no such curve, though single readings can be large or run the other way. Some of the results follow.

Target: Galactocerebrosidase (Homo sapiens) (UniProt P54803)
Sequence of UniProt P54803 (P54803 whole entry, looked up): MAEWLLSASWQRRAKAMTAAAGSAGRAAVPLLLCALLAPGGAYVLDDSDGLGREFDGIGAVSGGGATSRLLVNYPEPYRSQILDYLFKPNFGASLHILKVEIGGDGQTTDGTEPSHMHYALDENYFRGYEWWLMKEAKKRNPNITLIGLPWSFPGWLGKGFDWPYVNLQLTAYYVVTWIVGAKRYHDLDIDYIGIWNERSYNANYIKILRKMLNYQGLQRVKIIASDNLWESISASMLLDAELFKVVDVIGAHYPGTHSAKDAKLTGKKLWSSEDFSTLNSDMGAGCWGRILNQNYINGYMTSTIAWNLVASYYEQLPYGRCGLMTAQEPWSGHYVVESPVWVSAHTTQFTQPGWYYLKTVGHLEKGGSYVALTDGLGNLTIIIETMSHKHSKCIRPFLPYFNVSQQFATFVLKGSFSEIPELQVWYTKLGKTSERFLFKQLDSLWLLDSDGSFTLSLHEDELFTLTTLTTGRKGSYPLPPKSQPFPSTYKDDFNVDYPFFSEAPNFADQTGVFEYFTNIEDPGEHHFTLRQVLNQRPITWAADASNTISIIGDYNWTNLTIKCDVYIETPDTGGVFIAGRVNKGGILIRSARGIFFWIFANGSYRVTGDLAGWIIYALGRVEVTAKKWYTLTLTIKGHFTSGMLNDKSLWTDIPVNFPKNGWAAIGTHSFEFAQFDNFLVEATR
Experiment: A Novel Cell-Based Assay to Identify Small Molecules for B -Galactocerebrosidase; note: 0% is about no effect; nearly all actives have a fitted effect of over 65% in size
Settings: 145M-Twi-hGALC-G270D cells, HMU-beta-Gal fluorescence, 48 h; series mostly up to 57.5 µM; activation: at the top concentration
In short: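 qHTS, 1536-well; 145M-Twi-hGALC-G270D cells (WT line also made) in DMEM/F12 + 10% FBS; compound incubation on live cells; HMU-β-gal 0.1 mM final, pH 5.2, NaTC; carbonate stop; fluorescence increase = enhanced residual activity.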

activation, inactive:
CCCOc1ccc(C2c3c(oc4ccccc4c3=O)C(=O)N2c2ccc(C)cn2)cc1OCC (stereo not given) -7.87%
Cc1nc2ccccn2c(=O)c1CCN1CCC(C(=O)c2ccc(F)cc2)CC1 -19.1%
O=C(Nc1ccc(C(F)(F)F)cc1)c1cc(S(=O)(=O)NC2CCCCCC2)ccc1F -5.55%
CCOC(=O)c1ccc(CN(Cc2ccc(F)cc2)S(=O)(=O)c2ccc(F)cc2)cc1 -17.2%
CCOC(=O)c1c(C)[nH]c(C)c1S(=O)(=O)N1CCC(C(=O)N2CCN(c3cccc(C)c3)C(C)C2)CC1 (stereo not given) -9.18%
Cc1ccc(C)c(NC(=O)Nc2nnc(N(CC(C)C)CC(C)C)s2)c1 -15.1%
O=C(Cn1cc(SCc2cccc(F)c2)c2ccccc21)N1CCCC1 -0.791%
CCC(=O)c1ccc2c(c1)N(CCCN(C)C)c1ccccc1S2 -13.6%
Cc1ccc(C(=O)Nc2ccc3nc(SCC(=O)N4CCc5ccccc54)sc3c2)cc1 -14.4%
Cc1ccc2c(CNCc3cccc(Cl)c3)c(C(=O)O)n(Cc3ccc(F)cc3Cl)c2c1 -2.34%
Cc1cc2oc(C(=O)Nc3sc4c(c3C(=O)NCc3ccco3)CCC4)cc(=O)c2cc1C -10.1%
COc1ccc2oc(=O)c(-c3nc(-c4cc(OC)c(OC)c(OC)c4)no3)cc2c1 -10.5%
Cc1ccccc1N1CCN(CCc2nnc3n2CCCC3)CC1 -12.4%
O=C(CNS(=O)(=O)c1cccs1)N1CCN(c2ccccc2Cl)CC1 -11.5%
COc1cccc(NC(=O)Nc2ccc3c(c2)N(C)C(=O)c2ccccc2S3)c1 -12.1%
CC1CCN(C(=O)Cn2c(-c3cccs3)cc3cc(Cl)ccc32)CC1 -17.9%
COc1ccc(-c2c(C)c3ccc(O)c(CN4CCOCC4)c3oc2=O)cc1OC -7.52%
CCOc1ccc(-c2nnc(SCC(=O)Nc3cccc(C#N)c3)o2)cc1 -2.67%
CCCCOC(=O)c1c(C)oc2c1cc(NS(=O)(=O)c1cc(OC)ccc1OC)c1ccccc12 -19.5%
O=C(CN1C(=O)c2ccccc2Sc2ccc(C(=O)N3CCOCC3)cc21)Nc1ccc(Cl)cc1F -5.46%
CC(C)(C)c1ccc(C(=O)Nc2ccc(-c3nc4ccccc4o3)c(O)c2)cc1 0.465%
Cc1cccc(NC(=O)c2sc3ncnc(N(C)C4CCCCC4)c3c2C)c1C -7.83%
O=C(CSc1nccn1Cc1ccc(F)cc1)NCc1ccco1 1.29%
Cc1cc(C)c2c(c1)c(C)cc1nnc(SCC(=O)c3ccccc3)n12 -15%
Cc1ccc(C)c(NC(=O)C(CC(C)C)N2Cc3ccccc3C2=O)c1 (stereo not given) -7.84%
CCCN1Cc2cccc(C(=O)Nc3cc(Cl)ccc3C)c2C1=O -9.15%
Cc1ccc2c(c1)N(C(=O)CCC(=O)NCc1cccc(F)c1)CC(C)O2 (stereo not given) -13.5%
COc1ccc(CC(=O)Nc2nc3c(s2)CCCC3)cc1 6.63%
CCC(=O)N1CCc2cc(S(=O)(=O)CCC(=O)N3CCN(c4cccc(C)c4C)CC3)ccc21 1.37%
Cc1cccc(C)c1NC(=O)c1cc(S(=O)(=O)N2CCc3ccccc3C2)ccc1F 16.5%
CCN(CC)c1ccc2cc(-c3nc4sc5c(c4c(=O)[nH]3)CCC(C(C)(C)C)C5)c(=O)oc2c1 (stereo not given) -10.1%
COc1cccc(NC(=O)c2c(C)oc3nc(C)nc(N4CCCC4)c23)c1 1.13%
CC(=O)c1cccc(NC(=O)c2ccc3nc(Cc4ccccc4)oc3c2)c1 -27.5%
CCCCOc1ccc(C(=O)N(Cc2ccccc2)C2CCS(=O)(=O)C2)cc1 (stereo not given) 1.22%
CCn1c(=O)c2sccc2n2c(CCCC(=O)N3CCN(c4ccc(F)cc4)CC3)nnc12 2.03%
CCOc1ccc(-c2cc3c(=O)n(CC(=O)NCc4ccc(F)cc4)ccn3n2)cc1 -12.4%
COc1cccc2cc(-c3nc(-c4ccc(Cl)cc4)cs3)c(=O)oc12 25.3%
CCOC(=O)c1cccc(NC(=O)CCS(=O)(=O)c2ccc3c(c2)CCN3C(=O)CC)c1 1.38%
O=C(c1ccc(Cl)cc1)n1nc(-c2cccnc2)nc1NCc1ccc(F)cc1 -14.4%
Cc1csc2nc(COC(=O)CNC(=O)c3ccccc3)cc(=O)n12 1.04%
COc1ccc(N2CCN(Cc3nc4c(c(=O)[nH]c(=O)n4C)n3Cc3ccccc3C)CC2)cc1 9.75%
Cc1ccc(O)c(NC(=O)C2=CC(c3ccco3)=NS(=O)(=O)N2C)c1 -9.11%
COC(=O)c1ccc(NC(=O)C(=O)NCCc2csc(-c3ccc(F)cc3)n2)cc1 -10.9%
O=C(CSc1ncccc1C(=O)Oc1ccccc1Cl)Nc1ccc(C(F)(F)F)cc1Cl -14.5%
CCN(CC)S(=O)(=O)c1ccc2c(c1)N(CC(=O)Nc1cccc(C#N)c1)C(=O)CO2 -13.5%
FC(F)(F)c1cc(-c2ccccc2)nc2cc(-c3ccccc3)nn12 -4.62%
CCc1nnc(NC(=O)CSc2nc3c([nH]c4ccccc43)c(=O)n2-c2ccc(Cl)cc2)s1 -21.4%
O=c1oc2ccccc2cc1-c1cn2cc(Cc3cc(Cl)ccc3Cl)sc2n1 -2.82%
Cc1ccc(CN(C(=O)COc2ccccc2[N+](=O)[O-])c2ccccn2)o1 -18.1%
COc1ccc(NC(=O)C2CCCN(S(=O)(=O)c3ccc(F)cc3)C2)cc1 (stereo not given) -12.5%
CCCCSc1nc2sc3c(c2c(=O)n1-c1ccccc1C)CC(C)(C)OC3 -7.21%
Cc1cc(F)ccc1NC(=O)Cn1cc(S(=O)(=O)NC(C)C)c(S(=O)(=O)NC(C)C)c1 -16%
Cc1ccc2onc(CC(=O)N3CCN(c4cccc(Cl)c4)CC3)c2c1 -5.43%
COc1ccc(NC(=O)Cn2c(=O)oc3cc(S(=O)(=O)N4CCCCCC4)ccc32)cc1OC -9.01%
COc1cccc(C(=O)Nc2c(C(=O)Nc3ccc(F)cc3)oc3ccccc23)c1OC 1.86%
CCN(Cc1ccccc1)S(=O)(=O)c1cc(Br)cc2c1N(C(=O)C1CC1)CC2 -0.746%
Cc1ccc(NC(=O)c2cnc(N3CCCC3)nc2C)cc1F -1.93%
CCOc1ccc(C(=O)Nc2nnc(SCc3cc(=O)n4ccccc4n3)s2)cc1 -14.9%
O=C(c1ccccc1)N1CCN(CCc2ccccn2)CC1 -16.6%
COc1ccc(NC(=O)CNC(=O)Cn2c(C)cc3ccccc3c2=O)c(OC)c1 -7.06%
CCOc1ccc(-n2cc(-c3ccccc3)c3c(Nc4cccc(F)c4)ncnc32)cc1 -5.39%
O=c1c2cc3c(cc2nc2sc(Nc4cccc([N+](=O)[O-])c4)nn12)OCO3 -0.158%
CC(=O)Nc1ccc(NC(=O)CN(C)S(=O)(=O)c2ccc3c(c2)CCCC(=O)N3)cc1 -14.9%
COc1ccc(CC(=O)NCC(c2cccs2)S(=O)(=O)c2ccc(F)c(C)c2)cc1 (stereo not given) -16.7%
Cc1ccc(C)c(S(=O)(=O)c2nnn3c2nc(N2CCN(C)CC2)c2sccc23)c1 8.02%
Cc1cc2oc(=O)c(CC(=O)NCCc3ccccc3F)c(C)c2c2occ(C(C)(C)C)c12 -5.61%
CC(=O)Nc1cc(C(=O)NCc2ccc(F)cc2)ccc1Sc1ccc(F)cc1 -4.79%
CCOC(=O)c1c(NC(=O)c2ccc(OCC)c(Br)c2)sc2c1CCCC2 -5.3%
CCCCN(C(=O)C1CCC(CNS(=O)(=O)c2cccc3nsnc23)CC1)c1ccccc1 (stereo not given) -7.01%
COc1ccc(OC)c(NC(=O)C2CCCN(S(=O)(=O)c3ccc4c(c3)CCCC(=O)N4)C2)c1 (stereo not given) -25%
COc1ccccc1C(=O)Nc1ccc2nc(SCC(=O)N3CCCc4ccccc43)sc2c1 -12.5%
Cc1cc2n(n1)CCC(=O)N2Cc1ccc(C(=O)Nc2cc(Cl)ccc2C)cc1 5.3%
COc1ccccc1NC(=O)C1=C(C)Nc2nc(SC)nn2C1c1ccccc1Cl (stereo not given) -11%
CCOC(=O)c1cc(S(=O)(=O)NCc2ccc(Cl)cc2)[nH]n1 -24.8%
COc1ccccc1C(=O)Nc1nc2n(n1)C(c1ccc(F)cc1)C=C(c1ccc(Cl)cc1)N2 (stereo not given) -9.65%
Cc1cccc(CN2CCC(CNC(=O)Cn3ncc4c([nH]c5ccc(C)cc54)c3=O)CC2)c1 4.91%
COc1ccccc1C(=O)N/C(=C\c1cn(S(=O)(=O)N(C)C)c2ccccc12)C(=O)NCCCn1ccnc1 -14.7%
CCc1ccc(CNC(=O)C2CCCN(c3nnc(C)c4c(C)n(-c5ccccc5)nc34)C2)cc1 (stereo not given) -15.5%
Cc1ccccc1CSc1ncc(Cl)c(C(=O)Nc2nc3ccc(F)cc3s2)n1 13.1%
CCCCOc1ccc(C(C)NC(=O)CN2C(=O)CSc3ccc(S(=O)(=O)N4CCOCC4)cc32)cc1 (stereo not given) -7.55%
CSc1ccc(-c2nnn(CC(=O)Nc3sc4c(c3C#N)CCC(C(C)(C)C)C4)n2)cc1 (stereo not given) -12.8%
CCCN(CCC)C(=O)Cn1c(=O)n(-c2cccc(C)c2)c(=O)c2c1c1cc(OC)ccc1n2C -5.47%
COc1cccc(-c2cc(C(F)(F)F)nc(NCCc3ccc(OC)c(OC)c3)n2)c1 3.13%
CCCCN=C(N)N=C(N)N -12.8%
O=S1(=O)c2ccccc2N(Cc2cccc(F)c2)c2ccccc21 -16.7%
COc1ccc(NC(=O)c2ccco2)cc1NC(=O)c1cc(Cl)ccc1OC -0.657%
CCC(=O)Nc1ccc(Cl)c(-c2nc3ccccc3[nH]2)c1 0.826%
COc1ccccc1CN1CCC(CNC(=O)c2cnn(-c3ccccc3Cl)c2C2CCN(C(=O)OC(C)(C)C)CC2)CC1 -12.3%
COc1ccccc1CNC(=O)CCc1c(C)nc2cc(-c3ccc(Cl)cc3)nn2c1C -4.3%
Cc1cccc(NC(=O)c2ccc(-n3c(C)nnc3C)cc2)c1 -23.7%
Cc1ccc(-n2ncc3c(N4CCCCCC4)ncnc32)cc1Cl -15.8%
COc1ccc(-c2[nH]nc3nc(-c4cc(Br)ccc4OC)cc(C(=O)O)c23)cc1 -9.5%
Cc1c(C(=O)OC2CCCCC2)[nH]c2c1C(=O)CC(c1ccc(F)cc1)C2 (stereo not given) -28.4%
CC(C)CC(=O)NCC(c1ccc2c(c1)OCO2)N1CCN(c2ccccc2)CC1 (stereo not given) -8.64%
O=C(CN1CCCN(Cc2cccc(Cl)c2)S1(=O)=O)Nc1ccc2c(c1)OCCO2 -14.3%
